Reference: the supplement of paper PMC11876631
Residue numbers refer to the chain shown, from its start. Names and notes keep the numbering of the source. ± gives the standard deviation of the averaged measurements. Laboratory Escherichia coli strains with one amino-acid change in an essential protein, pooled on minimal glucose agar with carbenicillin or gentamicin at twice the control MIC (plus kanamycin and chloramphenicol for the plasmids), 48 h. Fold change of barcode share against drug-free plates; higher = less susceptible. Active = above 20 in both replicates (the paper's putatively resistant). '<' = one read or none on drug, '>' = one read or none on a drug-free plate. Shares are relative, so most strains fall below 1 when a few take over. Listed are strains with at least 15 reads on both drug-free plates, and hits; most hits rest on fewer reference reads. Replicate rank correlation about 0.5. Edits are read from barcodes.

B1: serC V171A (protein)
chain: MAQIFNFSSGPAMLPAEVLKQAQQELRDWNGLGTSVMEVSHRGKEFIQVAEEAEKDFRDLLNVPSNYKVLFCHGGGRGQFAAVPLNILGDKTTADYVDAGYWAASAIKEAKKYCTPNVFDAKVTVDGLRAVKPMREWQLSDNAAYMHYCPNETIDGIAIDETPDFGADVVAAADFSSTILSRPIDVSRYGVIYAGAQKNIGPAGLTIVIVREDLLGKANIACPSILDYSILNDNGSMFNTPPTFAWYLSGLVFKWLKANGGVAEMDKINQQKAELLYGVIDNSDFYRNDVAKANRSRMNVPFQLADSALDKLFLEESFAAGLHALKGHRVVGGMRASIYNAMPLEGVKALTDFMVEFERRHG
B2: serC F71W (protein)
chain: B1 chain with F71W, A171V
B3: serC L70A (protein)
chain: B1 chain with L70A, A171V
B4: serC L70P (protein)
chain: B1 chain with L70P, A171V
B5: serC V171P (protein)
chain: B1 chain with A171P
B6: serC L70Q (protein)
chain: B1 chain with L70Q, A171V
B7: serC F71A (protein)
chain: B1 chain with F71A, A171V
B8: serC L70D (protein)
chain: B1 chain with L70D, A171V
B9: serC I192A (protein)
chain: B1 chain with A171V, I192A
B10: serC V171W (protein)
chain: B1 chain with A171W
B11: serC L70W (protein)
chain: B1 chain with L70W, A171V
B12: serC V171Q (protein)
chain: B1 chain with A171Q
B13: serC F71Q (protein)
chain: B1 chain with F71Q, A171V

These proteins were tested against Escherichia coli (laboratory strain) (assay: barcode share on antibiotic plates over drug-free plates; higher = less susceptible). Details: antibiotic: carbenicillin; 2× MIC (3.1 µg/mL).
Method: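 A pool of E. coli strains, each edited to carry one amino-acid change in an essential protein, was grown for 48 h on minimal glucose agar with or without antibiotic; strain barcodes were sequenced; mean of two replicates.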

**Q.** With B1 as the protein, how does the “fold change of barcode share” value read?
**A.** 0.371 ± 0.022

**Q.** With B2 as the protein, how does the “fold change of barcode share” value read?
**A.** 0.398 ± 0.16

**Q.** How did the “fold change of barcode share” value turn out when B3 was run?
**A.** 0.807 ± 0.38

**Q.** With B4 as the protein, how does the “fold change of barcode share” value read?
**A.** 0.369 ± 0.076

**Q.** How did the “fold change of barcode share” value turn out when B5 was run?
**A.** 0.293 ± 0.034

**Q.** For B6, which “fold change of barcode share” value is on record?
**A.** 0.446 ± 0.0076

**Q.** B7 was tested. Which “fold change of barcode share” value did it give?
**A.** 1.85 ± 1.9

**Q.** For B8, which “fold change of barcode share” value is on record?
**A.** 0.621 ± 0.19

**Q.** For B9, which “fold change of barcode share” value is on record?
**A.** 0.623 ± 0.19

**Q.** With B10 as the protein, how does the “fold change of barcode share” value read?
**A.** 0.487 ± 0.38

**Q.** With B11 as the protein, how does the “fold change of barcode share” value read?
**A.** 0.424 ± 0.15

**Q.** With B12 as the protein, how does the “fold change of barcode share” value read?
**A.** 0.541 ± 0.043

**Q.** For B13, which “fold change of barcode share” value is on record?
**A.** 0.308 ± 0.0094

Same assay, conditions: antibiotic: gentamicin; 2× MIC (MIC 0.45 µg/mL)

**Q.** B1 was tested. Which “fold change of barcode share” value did it give?
**A.** 0.197 ± 0.27

**Q.** With B2 as the protein, how does the “fold change of barcode share” value read?
**A.** < 0.00572

**Q.** For B3, which “fold change of barcode share” value is on record?
**A.** < 0.00936

**Q.** B4 was tested. Which “fold change of barcode share” value did it give?
**A.** 0.00986 ± 0.0059

**Q.** How did the “fold change of barcode share” value turn out when B5 was run?
**A.** 0.0314 ± 0.032

**Q.** How did the “fold change of barcode share” value turn out when B6 was run?
**A.** 0.00685 ± 0.0047

**Q.** For B7, which “fold change of barcode share” value is on record?
**A.** 0.00899 ± 0.0045

**Q.** Which “fold change of barcode share” value does the source give for B8 here?
**A.** 0.00939 ± 0.0079

**Q.** How did the “fold change of barcode share” value turn out when B9 was run?
**A.** 0.0163 ± 0.015

**Q.** How did the “fold change of barcode share” value turn out when B10 was run?
**A.** 0.0943 ± 0.12

**Q.** How did the “fold change of barcode share” value turn out when B11 was run?
**A.** < 0.00621

**Q.** For B13, which “fold change of barcode share” value is on record?
**A.** 0.0107 ± 0.0077
